{"source": "PubChem BioAssay AID1347073", "about": "(National Center for Advancing Translational Sciences (NCATS), 2019)", "note": "The whole screen tested about 45,000 compounds, of which about 200 (0.44%) were called active. Inconclusive results (about 7%) are left out. The call rests on the fitted dose curve; in most records, active means well fitted activation curve with a large enough effect; inconclusive means small, poorly fitted or top-dose-only effect; inactive means no such curve, though single readings can be large or run the other way. Some of the results follow."}
{"assay": "qHTS of TDP-43 Inhibitors: NCGC Sytravon Library Screen; further: 0% is about no effect; nearly all actives have a fitted effect of over 55% in size", "details": "yeast TDP-43 toxicity rescue, BacTiter-Glo growth, 24 h; series mostly up to 46.1 µM; growth rescue (activation): at the top concentration", "how_it_was_run": "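TDP-43-expressing yeast, pregrown in raffinose, seeded at OD600 0.02 in galactose medium with compound for 24 hr at 30 deg C. Growth read by BacTiter-Glo luminescence, so rescue of toxicity appears as activation.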"}
{"smiles": "O=C(CN1CCN(CC(=O)Nc2ccc(-c3ccccc3)cc2)CC1)Nc1ccc(F)cc1", "growth rescue (activation)": "inactive: 21.5%"}
{"smiles": "CN(Cc1ccccc1F)Cc1cc(=O)oc2cc(O)c(Cl)cc12", "growth rescue (activation)": "inactive: -10%"}
{"smiles": "NS(=O)(=O)c1cccc(NC(=O)COC(=O)c2cc([N+](=O)[O-])ccc2N2CCCC2)c1", "growth rescue (activation)": "inactive: 0.355%"}
{"smiles": "CC(C)(C)C(=O)Nc1ccc(C(=O)N/N=C/c2ccccc2OC(=O)c2ccc(Cl)cc2Cl)cc1", "growth rescue (activation)": "inactive: 9.55%"}
{"smiles": "COc1cc(C(=O)N/N=C/c2ccccn2)cc(OC)c1OC", "growth rescue (activation)": "inactive: 1.33%"}
{"smiles": "COc1cccc(N2CCN(c3c4c(nc5nncn35)CCC4)CC2)c1", "growth rescue (activation)": "inactive: 35.5%"}
{"smiles": "COc1cccc(C(=O)COC(=O)CCCC(=O)NC2CCCCC2)c1", "growth rescue (activation)": "inactive: 12.9%"}
{"smiles": "CS(=O)(=O)Nc1ccccc1C(=O)NCC1(N2CCCCC2)CCCCC1", "growth rescue (activation)": "inactive: 2.33%"}
{"smiles": "Fc1ccc(-c2cn(-c3ccccc3)c3[n+]2CCS3)cc1", "growth rescue (activation)": "inactive: -12.8%"}
{"smiles": "CC(C)NC(=O)C1(C)CCCCCN1C(=O)c1ccc(-c2ccccc2)cc1", "note": "(configuration not stated)", "growth rescue (activation)": "inactive: 11%"}
{"smiles": "Cc1ccccc1OCCCC(=O)Nc1ccc(S(=O)(=O)Nc2onc(C)c2C)cc1", "growth rescue (activation)": "inactive: 13.2%"}
{"smiles": "COc1ccc(S(=O)(=O)NCC2CCCN(C(=O)CC3CCCC3)C2)cc1", "note": "(configuration not stated)", "growth rescue (activation)": "inactive: -25.4%"}
{"smiles": "COCCCN1C(=O)c2ccc(C(=O)OCC(=O)N(C)c3ccccc3)cc2C1=O", "growth rescue (activation)": "inactive: 9.97%"}
{"smiles": "O=C(CCNS(=O)(=O)c1ccc(Cl)cc1)N1CCCCCC1", "growth rescue (activation)": "inactive: -6.63%"}
{"smiles": "Cc1ccc(/C=C/C(=O)Nc2ccccc2C(N)=O)cc1", "growth rescue (activation)": "inactive: -3.97%"}
{"smiles": "COc1ccc(C=O)cc1CN1CCCN(Cc2ccc(Cl)cc2)S1(=O)=O", "growth rescue (activation)": "inactive: -1.97%"}
{"smiles": "COc1ccc(Cl)cc1NC(=O)c1cc(C)no1", "growth rescue (activation)": "inactive: 12.1%"}
{"smiles": "Cc1cc(Cl)cc(C)c1OCCn1ccnc1", "growth rescue (activation)": "inactive: -7.64%"}
{"smiles": "O=C(CSc1n[nH]c(-c2ccccn2)n1)Nc1ccc(F)cc1", "growth rescue (activation)": "inactive: 2.62%"}
{"smiles": "O=C(CSc1nncs1)Nc1ccc(S(=O)(=O)N2CCCC2)cc1", "growth rescue (activation)": "inactive: 16.7%"}
{"smiles": "Cc1ccc(C2C(C#N)=C(N)Oc3n[nH]c(-c4cccnc4)c32)o1", "note": "(configuration not stated)", "growth rescue (activation)": "inactive: 3.62%"}
{"smiles": "COc1ccc(NC2(c3ccc(Cl)cc3)C(=O)c3ccccc3C2=O)cc1", "growth rescue (activation)": "inactive: -4.2%"}
{"smiles": "Cc1ccc(NC(=O)c2cc(NC(=O)C3CC=CCC3C(=O)O)ccc2N2CCOCC2)cc1", "note": "(configuration not stated)", "growth rescue (activation)": "inactive: -0.106%"}
{"smiles": "C=CCn1c(SCC(=O)Nc2nnc(CC)s2)nnc1-c1ccncc1", "growth rescue (activation)": "inactive: -9.26%"}
{"smiles": "NC(=O)c1ccccc1NC(=O)CC1(CC(=O)O)CCCC1", "growth rescue (activation)": "inactive: 15.6%"}
{"smiles": "C#CCOc1ccc2c3c(c(=O)oc2c1)CCCC3", "growth rescue (activation)": "inactive: 21.5%"}
{"smiles": "O=C(Nc1nc2ccc(Cl)cc2s1)c1ccc(N2CCCCC2)c([N+](=O)[O-])c1", "growth rescue (activation)": "inactive: -4.11%"}
{"smiles": "O=C(CSc1nnc(Nc2ccccc2)s1)Nc1cccc(S(=O)(=O)N2CCCCC2)c1", "growth rescue (activation)": "inactive: 22.1%"}
{"smiles": "CC(NC(=S)Nc1ccc(S(=O)(=O)N2CCOCC2)cc1)C1CC2CCC1C2", "note": "(configuration not stated)", "growth rescue (activation)": "inactive: 2%"}
{"smiles": "Cc1ccccc1NC(=O)N1C2CCCC1CC(NC(=O)C(C)(C)C)C2", "note": "(configuration not stated)", "growth rescue (activation)": "inactive: 6.13%"}
{"smiles": "O=[N+]([O-])c1ccccc1CN1CCN(Cc2c[nH]c3ccccc23)CC1", "growth rescue (activation)": "inactive: 15.3%"}
{"smiles": "CN(C(=O)CN1C(=O)c2ccccc2S1(=O)=O)C1CCCCC1", "growth rescue (activation)": "inactive: 2.94%"}
{"smiles": "COCc1cc(=O)n2[nH]c(SCc3ccccc3)nc2n1", "growth rescue (activation)": "inactive: 3.02%"}
{"smiles": "CCOC(=O)c1nc(-c2ccccc2)oc1N1CCOCC1", "growth rescue (activation)": "inactive: 22%"}
{"smiles": "CC(=O)NCCNC(=O)c1ccc2c(c1)S(=O)(=O)c1ccccc1C2=O", "growth rescue (activation)": "inactive: 7.22%"}
{"smiles": "CC(=O)N1c2c(cc(Br)cc2S(=O)(=O)N2CCCCC2)CC1C", "note": "(configuration not stated)", "growth rescue (activation)": "inactive: 7.38%"}
{"smiles": "CCc1ccc2c(c1)C(c1ccc([N+](=O)[O-])cc1)=NNC(c1ccc(Br)cc1)=N2", "growth rescue (activation)": "inactive: -32.9%"}
{"smiles": "Cc1cccc(C)c1NC(=S)N1CCCCCC1", "growth rescue (activation)": "inactive: 19.1%"}
{"smiles": "O=C(NCC1CCCCC1)c1ccc2nc([C@@H]3O[C@H](CO)[C@@H](O)[C@H]3O)[nH]c2c1", "growth rescue (activation)": "inactive: 6.09%"}
{"smiles": "COc1ccc(S(=O)(=O)N(CC(=O)NCCSc2ccccn2)c2ccccc2)cc1", "growth rescue (activation)": "inactive: 12.1%"}
{"smiles": "COc1ccccc1NC(=O)N1CCN(Cc2ccc3c(c2)OCO3)CC1", "growth rescue (activation)": "inactive: 4.08%"}
{"smiles": "CN1CCN(C2=NC(=O)/C(=C/c3ccccc3OS(=O)(=O)c3ccccc3)S2)CC1", "growth rescue (activation)": "inactive: -0.859%"}
{"smiles": "O=c1[nH]ncc(N2CCCCCC2)c1Cl", "growth rescue (activation)": "inactive: 3.33%"}
{"smiles": "COc1ccc(CCNC(=O)COC(=O)c2cccn2C)cc1", "growth rescue (activation)": "inactive: 20%"}
{"smiles": "COc1cc(CCN2C(=O)c3cccc4cccc(c34)C2=O)c(S(=O)(=O)N2CCC(C)CC2)cc1OC", "growth rescue (activation)": "inactive: -14%"}
{"smiles": "Cc1ccc(CSc2ccc(S(=O)(=O)N3CCCCC3)cn2)cc1", "growth rescue (activation)": "inactive: 16.4%"}
{"smiles": "Cn1c(N)c(C(=O)COC(=O)c2ccccc2C(=O)c2ccc(Cl)c([N+](=O)[O-])c2)c(=O)n(C)c1=O", "growth rescue (activation)": "inactive: 5.03%"}
{"smiles": "O=C(c1ccc(F)cc1)c1cc2ccc(O)cc2oc1=O", "growth rescue (activation)": "inactive: -44.8%"}
{"smiles": "COc1ccc(-n2nc([N+](=O)[O-])c(=NC3CCN(Cc4ccccc4)CC3)n2O)cc1", "growth rescue (activation)": "inactive: 9.92%"}
{"smiles": "COc1cc(C)c(C(C)C)cc1S(=O)(=O)NC1CC(C)(C)NC(C)(C)C1", "growth rescue (activation)": "inactive: 1.95%"}
{"smiles": "COc1ccc(OC)c(S(=O)(=O)N2CCC(C(=O)NCc3ccccn3)CC2)c1", "growth rescue (activation)": "inactive: 6.08%"}
{"smiles": "COc1ccc(NC(=O)C2(C)Cc3c(-c4ccccc4)ccnc3O2)cc1OC", "note": "(configuration not stated)", "growth rescue (activation)": "inactive: 7.75%"}
{"smiles": "COCCNc1nc(Oc2ccc(NC(C)=O)cc2)c2sc(-c3ccccc3)cc2n1", "growth rescue (activation)": "inactive: 24.9%"}
{"smiles": "Cc1ccc(NC(=O)COC(=O)/C=C/c2cccc(Cl)c2)cc1S(=O)(=O)N1CCOCC1", "growth rescue (activation)": "inactive: -33.4%"}
{"smiles": "Cc1cc(NC(=O)COC(=O)C2CC(=O)N(c3ccccc3Cl)C2)no1", "note": "(configuration not stated)", "growth rescue (activation)": "inactive: -17.7%"}
{"smiles": "COc1cccc(C(=O)N(Cc2sccc2C)C2CCS(=O)(=O)C2)c1", "note": "(configuration not stated)", "growth rescue (activation)": "inactive: 15.8%"}
{"smiles": "O=C(Cc1ccc(F)cc1)NCC1CCCO1", "note": "(configuration not stated)", "growth rescue (activation)": "inactive: -1.84%"}
{"smiles": "O=C(COC(=O)c1cc(S(=O)(=O)N2CCOCC2)ccc1O)Nc1cc(S(=O)(=O)N2CCCC2)ccc1Cl", "growth rescue (activation)": "inactive: -12.4%"}
{"smiles": "Cc1cc(C)n(-c2c(F)c(F)c(CN3CCOCC3)c(F)c2F)n1", "growth rescue (activation)": "inactive: 14.8%"}
{"smiles": "CCOc1ccc(S(=O)(=O)N(C)c2ccc(OCC(=O)Nc3nc4ccccc4s3)cc2)cc1", "growth rescue (activation)": "inactive: 1.24%"}
{"smiles": "COc1cccc(NC(=O)N[C@@H](Cc2ccccc2)C(=O)O)c1", "growth rescue (activation)": "inactive: -18.5%"}
{"smiles": "C/C(=N/NC(=O)Cc1cccs1)c1ccco1", "growth rescue (activation)": "inactive: 17.8%"}
{"smiles": "c1ccc(N2CCN(Cc3nc4ccccc4[nH]3)CC2)nc1", "growth rescue (activation)": "inactive: 12.6%"}
{"smiles": "CN(CCOc1ccccc1)CC(O)COCc1ccccc1F", "note": "(configuration not stated)", "growth rescue (activation)": "inactive: -4.32%"}
{"smiles": "Cc1c(Cl)cccc1NC(=S)NCc1cccn1C", "growth rescue (activation)": "inactive: 24.2%"}
{"smiles": "COc1nc(OCC#N)nc(N(C)C)n1", "growth rescue (activation)": "inactive: 2.41%"}
{"smiles": "NS(=O)(=O)c1cccc(NC(=O)CN2C(=O)C(=O)N(Cc3ccccc3)C2=O)c1", "growth rescue (activation)": "inactive: -5.7%"}
